This is a noisy data set.
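Note: [psi-pin-] Saccharomyces cerevisiae expressing SupN fusions, induced by 100 µM Cu2SO4, selected 7 d at 30 °C without adenine and uracil, scored by deep sequencing of output versus input.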

One data set is described as follows: amyloid nucleation score relative to library mode (yeast Sup35 reporter selection) (log enrichment difference); higher = more amyloid nucleation; sequences are the first 22 residues of the Bri2 peptide extended by up to 12 random residues. Particulars: random library (experiment): 1;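 active = nucleation score significantly above 0 at FDR 0.05; inactive = not significantly above 0 or absent from output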.
The sequence EASNCFAIRHFENKFAVETLICLLVICWMGLAR gave an amyloid nucleation score of 0.609.
The same measure, in the same setting: the entry for EASNCFAIRHFENKFAVETLICLLVK is “inactive”.
Still for that read-out and setting: as for EASNCFAIRHFENKFAVETLICLLVMST, the entry is “inactive”; as for EASNCFAIRHFENKFAVETLICLLVNIS, 4.65.
Same read-out and setting: as for EASNCFAIRHFENKFAVETLICLLVP, the figure is -0.45; as for EASNCFAIRHFENKFAVETLICLLWCVQGRSYGW, “inactive”; as for EASNCFAIRHFENKFAVETLICLLYFVGNKGGFT, 3.31.
Turning to EASNCFAIRHFENKFAVETLICLLYRWSMSLMYG, the amyloid nucleation score entry was “inactive”.
On to EASNCFAIRHFENKFAVETLICLMALA, for which the amyloid nucleation score entry was “inactive”.
Still for that read-out and setting: as for EASNCFAIRHFENKFAVETLICLMCET, the entry is “inactive”; as for EASNCFAIRHFENKFAVETLICLMCVCAESWSMS, 9.03.
Consider EASNCFAIRHFENKFAVETLICLME, for which the amyloid nucleation score result is “inactive”.
Still for that read-out and setting: the figure for EASNCFAIRHFENKFAVETLICLMEGQVY is -0.203; for EASNCFAIRHFENKFAVETLICLMERRIRATAIQ it is “inactive”; for EASNCFAIRHFENKFAVETLICLMFFRF it is “inactive”.
Still for that read-out and setting: the entry for EASNCFAIRHFENKFAVETLICLMFLPAWSAHYR is “inactive”; for EASNCFAIRHFENKFAVETLICLMGLPLLTRLLA it is “inactive”; for EASNCFAIRHFENKFAVETLICLMIMDVCGGWLL it is “inactive”.
On the same count and under the same terms, as for EASNCFAIRHFENKFAVETLICLMLCS, the figure is 6.49; as for EASNCFAIRHFENKFAVETLICLMLEVHYAAHRR, “inactive”; as for EASNCFAIRHFENKFAVETLICLMLG, 2.14.
Regarding EASNCFAIRHFENKFAVETLICLMLHPGHFWRSR, the amyloid nucleation score is 3.6.
Take EASNCFAIRHFENKFAVETLICLMLRARGVDKAC: the amyloid nucleation score was determined as 2.98.
On the same count and under the same terms, the entry for EASNCFAIRHFENKFAVETLICLMLRLMKAYRT is “inactive”; for EASNCFAIRHFENKFAVETLICLMLRQILASRWE it is “inactive”.
On the same count and under the same terms, as for EASNCFAIRHFENKFAVETLICLMMIMLACVPRS, the entry is “inactive”; as for EASNCFAIRHFENKFAVETLICLMPE, “inactive”.
The same measure, in the same setting: as for EASNCFAIRHFENKFAVETLICLMPGFCVVALRE, the entry is “inactive”; as for EASNCFAIRHFENKFAVETLICLMQGDKNRVSLE, 6.74; as for EASNCFAIRHFENKFAVETLICLMRAVRPPYGCE, “inactive”.
As to EASNCFAIRHFENKFAVETLICLMRS, the amyloid nucleation score result was “inactive”.
EASNCFAIRHFENKFAVETLICLMRVAPPSLWVG: the amyloid nucleation score entry is “inactive”.
On the same count and under the same terms, the entry for EASNCFAIRHFENKFAVETLICLMRWSRTVACVG is “inactive”.

Staying with this data set, now noted: random library (experiment): 2.
For EASNCFAIRHFENKFAVETLICLLWAEGWAVSPW, the amyloid nucleation score result was “inactive”.
The same measure, in the same setting: as for EASNCFAIRHFENKFAVETLICLLWIGHL, the entry is “inactive”; as for EASNCFAIRHFENKFAVETLICLLYIGWTSLVRK, 1.93; as for EASNCFAIRHFENKFAVETLICLMDCTIGVGLER, 6.68.
Same read-out and setting: the entry for EASNCFAIRHFENKFAVETLICLMDNIDFKALYF is “inactive”; for EASNCFAIRHFENKFAVETLICLMDSYGLLMSHR it is 1.14.
Still for that read-out and setting: the figure for EASNCFAIRHFENKFAVETLICLMF is 7.62.
On to EASNCFAIRHFENKFAVETLICLMFDDQTIIMS, for which the amyloid nucleation score entry is “inactive”.
Sequence EASNCFAIRHFENKFAVETLICLMFE showed an amyloid nucleation score of 3.22.
On to EASNCFAIRHFENKFAVETLICLMFGSW, for which the amyloid nucleation score is 5.06.
For EASNCFAIRHFENKFAVETLICLMFHLY, the amyloid nucleation score result is “inactive”.
The same measure, in the same setting: the figure for EASNCFAIRHFENKFAVETLICLMFMHITANMSY is -0.215; for EASNCFAIRHFENKFAVETLICLMFSIVVLVMQW it is “inactive”.
The same measure, in the same setting: as for EASNCFAIRHFENKFAVETLICLMGFDRVSKLIP, the entry is “inactive”; as for EASNCFAIRHFENKFAVETLICLMIVGNVSVRVN, 4.05; as for EASNCFAIRHFENKFAVETLICLMKTR, “inactive”.
For the sequence EASNCFAIRHFENKFAVETLICLMLAGYN, the amyloid nucleation score result is “inactive”.
Consider EASNCFAIRHFENKFAVETLICLMLFSKVLMKVC, for which the amyloid nucleation score result was “inactive”.
Same read-out and setting: the figure for EASNCFAIRHFENKFAVETLICLMLFVFVFILTR is 2.62.
Still for that read-out and setting: the entry for EASNCFAIRHFENKFAVETLICLMMYMCLTFVA is “inactive”.

The same data set, now with this note: random library (experiment): 3.
For the sequence EASNCFAIRHFENKFAVETLICLLVGIMGGRSRE, the amyloid nucleation score entry is “inactive”.
In the case of EASNCFAIRHFENKFAVETLICLLVSGRHRYA, the amyloid nucleation score was 3.15.
EASNCFAIRHFENKFAVETLICLLVSGTRHYGLY: the amyloid nucleation score entry is “inactive”.
Consider EASNCFAIRHFENKFAVETLICLLW, for which the amyloid nucleation score turned out to be 4.91.
Still for that read-out and setting: as for EASNCFAIRHFENKFAVETLICLLWGCWRGMSLG, the entry is “inactive”; as for EASNCFAIRHFENKFAVETLICLLWYWCTIDVVA, “inactive”.
On the same count and under the same terms, the entry for EASNCFAIRHFENKFAVETLICLLYCIGPMWSGL is “inactive”.
Still for that read-out and setting: as for EASNCFAIRHFENKFAVETLICLM, the figure is 4.4; as for EASNCFAIRHFENKFAVETLICLMCFVAVFRLSV, 0.249; as for EASNCFAIRHFENKFAVETLICLMCGTFFALRMM, “inactive”.
In the case of EASNCFAIRHFENKFAVETLICLMCHEYVLEALV, the amyloid nucleation score entry is “inactive”.
On the same count and under the same terms, the figure for EASNCFAIRHFENKFAVETLICLMCLV is 7.19; for EASNCFAIRHFENKFAVETLICLMCSWREWEACQ it is 6.41.
Still for that read-out and setting: the figure for EASNCFAIRHFENKFAVETLICLMDPDSRPAIL is 0.0748; for EASNCFAIRHFENKFAVETLICLMFDCSSVGSCP it is 7.87; for EASNCFAIRHFENKFAVETLICLMGCKLFVAVTL it is “inactive”.
On the same count and under the same terms, as for EASNCFAIRHFENKFAVETLICLMGTWVLVEAVW, the entry is “inactive”.
Sequence EASNCFAIRHFENKFAVETLICLMLEYRTWAVAR showed an amyloid nucleation score of 0.527.
On the same count and under the same terms, the figure for EASNCFAIRHFENKFAVETLICLMLL is 0.658; for EASNCFAIRHFENKFAVETLICLMLR it is -0.489; for EASNCFAIRHFENKFAVETLICLMRGRVPCWSSG it is “inactive”.
EASNCFAIRHFENKFAVETLICLMRLCRGYCDFR gave an amyloid nucleation score of 5.06.
Still for that read-out and setting: as for EASNCFAIRHFENKFAVETLICLMRVT, the entry is “inactive”.
